Assay results taken from PubChem BioAssay (Tox21).
The inconclusive results got no clear call from the source; some entries with a clear call stand among them for comparison. For part of these data: Where the call is inconclusive, the potency comes from a doubtful curve fit. The source made the active and inactive calls. Unless noted, calls come from the whole dose curve; as a rule, active = well fitted curve in the direction sought with a large enough effect in the repeat runs; inconclusive = weak or mixed curves; inactive = no such curve, though single readings can be large; an effect the other way counts as inactive or inconclusive.

How the values were obtained:
[1] = target: Nuclear receptor subfamily 1 group I member 3 (Homo sapiens) (UniProt Q14994); test: qHTS assay to identify small molecule antagonists of the constitutive androstane receptor (CAR) signaling pathway (AID 1224838);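 note: HepG2 cells stably expressing hCAR with CYP2B6 luciferase reporter stimulated by CITCO; nearly all actives have a fitted effect of over 40% in size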
Method in brief: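 Antagonist mode used CITCO at a final 50 nM to activate CAR in human hepatoma HepG2 cells carrying stable hCAR and a 2.2 kb CYP2B6 promoter-luciferase construct. Compounds were tested at 15 concentrations over 24 h, with luminescence as the end point.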

[2] = qHTS assay to identify small molecule antagonists of the estrogen related receptor signaling pathway with the pleiotropic PPARgamma coactivator (PGC) from Tox21 10K library - cell viability counter screen (AID 1224840; active = well fitted cell-killing curve with a large enough effect in the repeat runs, not every such curve was filed as active; inconclusive = weak or mixed curves, or effect the other way; inactive = no such curve, though single readings can be large or run the other way; note: nearly all actives have a fitted effect of over 40% in size)
Method in brief: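 Multiplexed viability counter screen in the PGC/ERR cell line: cells treated with DMSO-dissolved compounds for 17.5 hours at 37 C, then viability measured as CellTiter-Fluor fluorescence.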

[3] = qHTS assay to identify small molecule agonists of H2AX (AID 1224845; active = well fitted activation curve with a large enough effect in the signal ratio in the repeat runs, not every such curve was filed as active; inconclusive = weak or mixed curves; the % refers to the signal ratio); details: CHO-K1 phospho-H2AX Ser139 HTRF, 3 h; activation (H2AX phosphorylation): at 154 µM (top of the series)
Method in brief: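 Wild-type CHO-K1 cells, plated overnight, exposed 3hr at 37C to 15 concentrations (0.76% DMSO final). Lysed, then HTRF anti-pH2AX (S139) cryptate and anti-H2AX-d2 antibodies, 24 hr room temperature; 665/620 nm emission read.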

[4] = qHTS assay to identify small molecule agonists of the hypoxia (HIF-1) signaling pathway (AID 1224846; active = well fitted activation curve with a large enough effect in the signal ratio in the repeat runs, not every such curve was filed as active; inconclusive = weak or mixed curves; the % refers to the signal ratio); details: HRE-bla ME-180 cells, beta-lactamase ratio, 17 h; activation: at 76.8 µM (top of the series) unless noted
Method in brief: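 Compounds from the Tox21 10K library, dissolved in DMSO, are tested for induction of a hypoxia response element–controlled beta-lactamase reporter in ME-180 cells. Exposure lasts 17 hrs at 37C after a 5 hr settling period, followed by CCF4-AM FRET substrate.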

[5] = qHTS assay to identify small molecule agonists of H2AX - cell viability counter screen (AID 1224847; calls by dose curve; note: nearly all actives have a fitted effect of over 30% in size)
Method in brief: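 Cytotoxicity counter screen in wild-type CHO-K1 cells: a 3 hr compound treatment at 37C across 15 concentrations, followed by CellTiter-Glo luminescence to gauge viable cells.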

[6] = qHTS RealTime-Glo MT Cell Viability Assay in HEK293 cells - 32 hour (AID 1224868); note: nearly all actives have a fitted effect of over 50% in size
Method in brief: (§1)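 Luminescence generated by NanoLuc from substrate produced by living HEK293 cells served as the viability signal. Each value reflects the reading at its stated time point during continuous 40 h compound exposure at 37 C.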

[7] = qHTS RealTime-Glo MT Cell Viability Assay in HepG2 cells - 40 hour (AID 1224870); note: nearly all actives have a fitted effect of over 50% in size
Method in brief: (§2)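 HepG2 cells (600/well) mixed with RealTime-Glo MT reagent, settled 5 h at 37 C/5% CO2 before compound addition. Nonlytic NanoLuc luminescence from viable-cell prosubstrate reduction read repeatedly during 40 h treatment at 37 C.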

[8] = qHTS RealTime-Glo MT Cell Viability Assay in HepG2 cells - 8 hour (AID 1224873); note: nearly all actives have a fitted effect of over 55% in size
Method in brief: as §2

[9] = qHTS RealTime-Glo MT Cell Viability Assay in HEK293 cells - 40 hour (AID 1224874); details: RealTime-Glo luminescence; max response: active compounds read low; note: nearly all actives have a fitted effect of over 50% in size
Method in brief: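 Real-time viability in HEK293: signal arises when living cells convert a prosubstrate for NanoLuc in the medium, so luminescence tracks viable cell number. Compound (23 nL, DMSO) added 5 h post-seeding; kinetic reads at 0–40 h, 37 C.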

[10] = target: Nuclear receptor subfamily 1 group I member 3 (Homo sapiens) (UniProt Q14994); test: qHTS assay to identify small molecule agonists of the constitutive androstane receptor (CAR) signaling pathway (AID 1224839); note: nearly all actives have a fitted effect of over 15% in size
Method in brief: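 Cells were plated and incubated 4 hrs, then dosed with compounds at 15 concentrations. PK11195 was added to 0.75 uM final. After 24 hrs at 37 C, luciferase luminescence was measured.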

[11] = qHTS assay to identify small molecule antagonists of the estrogen related receptor (ERR) signaling pathway from Tox21 library (AID 1224848); note: nearly all actives have a fitted effect of over 50% in size
Method in brief: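 Quantitative high-throughput format: ERR reporter cells (2,000/well) pre-incubated 6 h, treated 18 h at 37 C with compounds in DMSO alongside positive and negative controls, then read by ONE-Glo luminescence.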

[12] = A CellTox Green Cytotoxicity Assay to monitor cytotoxicity in HEK293 cells - 40 hour (AID 1224871); note: nearly all actives have a fitted effect of over 45% in size
Method in brief: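 Cells (HEK293, 600/well) and dye reagent are dispensed together. After 5 h at 37 C, 23 nL compound is pinned in. Plates stay at 37 C for 40 h with fluorescence read at 0h, 8h, 16h, 24h, 32h and 40h.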

[13] = qHTS RealTime-Glo MT Cell Viability Assay in HEK293 cells - 16 hour (AID 1224872); note: nearly all actives have a fitted effect of over 50% in size
Method in brief: as §1

[14] = target: Thyrotropin receptor (Homo sapiens) (UniProt P16473); test: qHTS assay to identify small molecule agonists of the thyroid stimulating hormone receptor (TSHR) signaling pathway (AID 1224843; calls by dose curve; note: nearly all actives have a fitted effect of over 45% in size; for activation: % is set by controls: 0 for no effect and ±100 for the full control effect); details: TSHR-HEK293 cells, cAMP HTRF, agonist mode, 30 min; activation: at 92.4 µM (top of the series) unless noted
Method in brief: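 Agonist-mode screen: TSHR HEK293 cells received test chemicals for half an hour at room temperature, then HTRF cAMP detection reagents for one hour prior to fluorescence measurement. Each chemical ran as a 15-concentration series, triplicated.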

[15] = qHTS assay to identify small molecule agonists of the hypoxia (HIF-1) signaling pathway - cell viability counter screen (AID 1224844; calls by dose curve; note: nearly all actives have a fitted effect of over 50% in size)
Method in brief: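 Cytotoxicity was measured in parallel with the HRE-driven beta-lactamase readout: after 17 hrs of compound exposure at 37C, HRE-bla ME-180 cells received CellTiter-Glo and luminescence was recorded 30 min later.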

[16] = qHTS RealTime-Glo MT Cell Viability Assay in HepG2 cells - 24 hour (AID 1224867); note: nearly all actives have a fitted effect of over 50% in size
Method in brief: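 Tox21 10K library screened in qHTS format on HepG2 cells carrying RealTime-Glo reagents. Compounds were added after a 5 h preincubation, and the luminescent signal from continuous culture was measured repeatedly during 40 h treatment.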

[17] = qHTS assay to identify small molecule antagonists of the estrogen related receptor signaling pathway with the pleiotropic PPARgamma coactivator (PGC) from Tox21 10K library (AID 1224841; call rule not given here)
Method in brief: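 Steps: plate 2,000 PGC/ERR cells per well; incubate 6 h at 37 C with 5% CO2; transfer compounds from DMSO stocks by pin tool; incubate 18 h at 37 C; add One-Glo; measure luminescence 30 min later.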
Potency is the fitted concentration of half-maximal effect; tags give direction and shape of the fitted curve or compound fluorescence and quenching.

Chain of UniProt Q14994 (Q14994 whole entry, looked up): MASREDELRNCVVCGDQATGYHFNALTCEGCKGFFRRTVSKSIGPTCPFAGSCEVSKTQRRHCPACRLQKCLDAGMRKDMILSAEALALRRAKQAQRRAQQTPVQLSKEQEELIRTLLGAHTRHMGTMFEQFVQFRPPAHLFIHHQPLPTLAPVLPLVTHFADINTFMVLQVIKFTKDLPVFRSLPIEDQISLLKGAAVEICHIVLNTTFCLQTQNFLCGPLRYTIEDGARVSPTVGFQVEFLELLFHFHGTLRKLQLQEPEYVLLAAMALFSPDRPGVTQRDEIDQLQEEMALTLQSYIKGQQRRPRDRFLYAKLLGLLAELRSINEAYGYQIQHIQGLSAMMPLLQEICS
Chain of UniProt P16473 (P16473 whole entry, looked up): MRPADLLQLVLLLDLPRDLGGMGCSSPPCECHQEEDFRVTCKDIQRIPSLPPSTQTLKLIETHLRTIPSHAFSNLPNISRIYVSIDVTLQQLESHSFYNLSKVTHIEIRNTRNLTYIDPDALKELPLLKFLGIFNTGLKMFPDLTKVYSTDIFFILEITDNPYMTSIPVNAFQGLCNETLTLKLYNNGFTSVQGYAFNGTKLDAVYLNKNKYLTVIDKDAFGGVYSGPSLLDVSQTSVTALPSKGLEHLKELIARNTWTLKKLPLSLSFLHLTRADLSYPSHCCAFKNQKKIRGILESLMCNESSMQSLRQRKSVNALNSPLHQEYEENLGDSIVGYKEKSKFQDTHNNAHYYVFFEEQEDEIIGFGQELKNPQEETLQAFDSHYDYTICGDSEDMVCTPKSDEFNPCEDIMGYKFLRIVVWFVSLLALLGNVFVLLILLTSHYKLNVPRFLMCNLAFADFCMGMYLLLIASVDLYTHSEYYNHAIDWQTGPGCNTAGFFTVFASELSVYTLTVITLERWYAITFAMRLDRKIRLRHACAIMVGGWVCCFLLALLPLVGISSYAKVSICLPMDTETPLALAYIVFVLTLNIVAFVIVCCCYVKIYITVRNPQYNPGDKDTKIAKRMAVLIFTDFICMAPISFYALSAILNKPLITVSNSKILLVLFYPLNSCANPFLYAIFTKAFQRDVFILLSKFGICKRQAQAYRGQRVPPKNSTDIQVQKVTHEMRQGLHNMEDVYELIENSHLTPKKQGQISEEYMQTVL

[CH3][Hg][Cl]
inconclusive: Potency [1] 27.2 µM [inhibitor, single point] | Potency [3] 17.9 µM [activator, partial curve] | Potency [4] 10.9 µM [falling, full curve]
active: Potency [2] 38.5 µM | Potency [5] 50.4 µM | Potency [6] 4.35 µM | Potency [7] 10.9 µM | Potency [8] 15.5 µM | Potency [9] 3.88 µM

ClC1=C(Cl)[C@]2(Cl)[C@@H]3[C@@H](Cl)[C@H]4O[C@H]4[C@@H]3C1(Cl)C2(Cl)Cl
active: Potency [5] 113 µM | Potency [12] 54.9 µM | Potency [13] 54.9 µM
inactive: Potency [1]
inconclusive: Potency [10] 9.69 µM [activator, full curve, poor fit] | Potency [2] 61.1 µM [cytotoxic, partial curve] | Potency [3] 127 µM [activator, single point] | Potency [11] 68.6 µM [inhibitor] | Potency [6] 61.6 µM [cytotoxic, single point] | Potency [7] 61.6 µM [falling, single point] | Potency [8] 54.9 µM [falling, single point] | Potency [9] 61.6 µM [cytotoxic, single point]

C=CC(=O)OCCCCOC(=O)C=C
active: Potency [3] 101 µM
inconclusive: Potency [1] 68.6 µM [inhibitor] | activation [14] 23.6% | Potency [15] 61.6 µM [cytotoxic, single point] | Potency [4] 54.9 µM [partial curve] | Potency [5] 56.6 µM [rising, partial curve] | Potency [7] 54.9 µM [falling, single point] | Potency [13] 24.5 µM [cytotoxic, full curve] | Potency [8] 7.76 µM [falling, partial curve]

O=C(O)c1cc[c]([Hg][Cl])cc1
active: Potency [2] 13.7 µM | Potency [14] 15.4 µM | Potency [16] 24.5 µM | Potency [8] 34.7 µM
inconclusive: Potency [1] 68.6 µM [inhibitor, single point] | Potency [3] 50.5 µM [falling, full curve] | Potency [4] 38.9 µM [falling, partial curve] | Potency [5] 127 µM [cytotoxic, single point] | Potency [6] 1.95 µM [rising, partial curve] | Potency [13] 1.95 µM [rising, partial curve]

O=C(Nc1ccc2[nH]ccc2c1)c1cc2cc(F)ccc2n1Cc1cccc(F)c1
inactive: Potency [6]
inconclusive: Potency [1] 77 µM [inhibitor, single point] | Potency [2] 48.6 µM [cytotoxic, partial curve] | Potency [5] 80 µM [cytotoxic, partial curve] | Potency [16] 38.9 µM [falling, partial curve] | Potency [7] 43.6 µM [falling, partial curve] | Potency [8] 24.5 µM [falling, partial curve] | Potency [9] 17.4 µM [cytotoxic, full curve]

Fc1ccc(C(OCCN2CCN(CCCc3ccccc3)CC2)c2ccc(F)cc2)cc1
active: Potency [17] 11.9 µM | Potency [15] 16.9 µM | Potency [5] 55.2 µM | Potency [16] 23.9 µM | Potency [8] 23.9 µM | Potency [9] 9.52 µM
inconclusive: Potency [1] 33.5 µM [inhibitor, single point] | Potency [3] 22 µM [fluorescent, single point] | Potency [4] 21.3 µM [falling, partial curve]
